Measured values as given in PubChem BioAssay AID1159614 (National Center for Advancing Translational Sciences (NCATS), 2016).
Out of some 45,000 compounds screened, about 65 (0.1%) were called active. Calls follow the shape of the dose curve; as a rule, active = well fitted activation curve with a large enough effect; inconclusive = small, poorly fitted or top-dose-only effect; inactive = no such curve, though single readings can be large or run the other way. The list shows a part of the results.

Target: Galactocerebrosidase (Homo sapiens) (UniProt P54803)
Chain of UniProt P54803 (P54803 whole entry, looked up): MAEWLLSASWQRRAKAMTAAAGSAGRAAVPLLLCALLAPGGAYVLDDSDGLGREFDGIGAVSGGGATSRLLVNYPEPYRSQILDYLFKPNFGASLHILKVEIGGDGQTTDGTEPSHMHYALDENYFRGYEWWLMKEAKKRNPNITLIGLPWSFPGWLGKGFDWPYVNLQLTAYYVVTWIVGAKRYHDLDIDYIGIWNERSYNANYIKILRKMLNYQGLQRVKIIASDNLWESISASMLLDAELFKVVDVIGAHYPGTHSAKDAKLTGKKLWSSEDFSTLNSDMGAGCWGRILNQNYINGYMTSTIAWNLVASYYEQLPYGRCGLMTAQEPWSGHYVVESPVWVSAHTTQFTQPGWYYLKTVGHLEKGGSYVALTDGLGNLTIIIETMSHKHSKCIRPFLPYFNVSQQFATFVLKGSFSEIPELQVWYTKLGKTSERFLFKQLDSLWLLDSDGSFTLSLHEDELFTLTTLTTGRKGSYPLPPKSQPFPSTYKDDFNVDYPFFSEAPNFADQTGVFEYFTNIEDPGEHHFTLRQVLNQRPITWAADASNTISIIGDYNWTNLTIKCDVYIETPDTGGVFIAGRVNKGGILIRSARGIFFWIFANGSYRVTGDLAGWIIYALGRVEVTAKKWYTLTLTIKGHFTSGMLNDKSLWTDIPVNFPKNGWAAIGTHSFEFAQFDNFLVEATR
Test: A Novel Cell-Based Assay to Identify Small Molecules for B -Galactocerebrosidase; also: 0% is about no effect; nearly all actives have a fitted effect of over 65% in size
Settings: 145M-Twi-hGALC-G270D cells (Twitcher mouse brain line with human GALC G270D), HMU-beta-Gal fluorescence, 48 h; activation: at the top concentration
Method in brief: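 Fluorescence readout: HMU-β-gal cleavage by mutant GALC (0.1 mM final, citrate/phosphate pH 5.2 with 1 mg/mL taurocholate), stopped with carbonate/bicarbonate plus Triton X-100. Cells: murine Twitcher 145M-Twi expressing human G270D GALC; qHTS for activators.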

| SMILES | activation |
| --- | --- |
| Cc1cccc(-n2c(/C=C/c3cccc4ccccc34)nc3ccccc3c2=O)c1 | inactive: 0.217% |
| O=c1c2ccccc2nc(/C=C\c2cccc(Br)c2)n1-c1ccc(O)cc1 | inactive: -10.5% |
| COc1ccc(NC(=O)c2cccn(Cc3ccc(Cl)cc3)c2=O)c(OC)c1 | inactive: -32.1% |
| CNC(=O)Oc1cccc2ccccc12 | inactive: -9.6% |
| CCOC(=O)c1cncn1C(C)c1ccccc1 (stereo not given) | inactive: -9.92% |
| N#Cc1cc2c(nc1SCC(=O)Nc1ccc(Cl)c(C(F)(F)F)c1)C1CCN2CC1 | inactive: -20.2% |
| CC1=C(C(=O)O)N2C(=O)[C@@H](N)[C@H]2SC1 | inactive: -10.9% [at 23.8 µM] |
| C[C@]12Cc3cn[nH]c3C[C@@H]1CC[C@@H]1[C@@H]2CC[C@@]2(C)[C@H]1CC[C@]2(C)O | inactive: -15.2% |
| CC(=O)N[C@H]1[C@H]([C@H](O)[C@H](O)CO)OC(C(=O)O)=C[C@@H]1N=C(N)N | inactive: -11.2% |
| Cc1ncsc1CCCl | inactive: -14.3% |
| O=C(Nc1ccccc1C(F)(F)F)c1cccn(Cc2ccccc2)c1=O | inactive: -8.99% |
| Cc1ccccc1-n1c(/C=C/c2ccccc2F)nc2ccccc2c1=O | inactive: -28.8% |
| O=C(COc1ccccc1[N+](=O)[O-])N1CCN(CCc2ccccn2)CC1 | inactive: -8.87% |
| CN(C(=O)CSc1nc2ccc(NC(=O)COc3ccccc3)cc2s1)c1ccccc1 | inactive: -31.3% |
| C=C1CC[C@@]2(O)[C@H]3Cc4ccc(O)c5c4[C@@]2(CCN3CC2CC2)[C@H]1O5 | inactive: -16.4% |
| Cc1ccc(-n2c(/C=C/c3cccc4ccccc34)nc3ccccc3c2=O)cc1 | inactive: -19.5% |
| O=[N+]([O-])O[C@H]1CO[C@H]2[C@@H]1OC[C@H]2O[N+](=O)[O-] | inactive: -17.1% |
| O=C(CCCN1CCC2(CC1)C(=O)NCN2c1ccccc1)c1ccc(F)cc1 | inactive: -23.7% |
| Nc1ccc(Cl)cc1N | inactive: -16.3% [at 114 µM] |
| COc1cccc(CN2C(=O)C3(SCC(=O)N3c3ccc(C)c(Cl)c3)c3ccccc32)c1 (stereo not given) | inactive: -39.3% |
| CCOC(=O)c1ccc(NC(=O)CSc2nc3c(cc2C#N)N2CCC3CC2)cc1 | inactive: 4.68% |
| Cc1cccc(Cn2cccc(C(=O)Nc3nc4ccccc4s3)c2=O)c1 | inactive: -9.54% |
| CCC(=O)C(CC(C)N(C)C)(c1ccccc1)c1ccccc1 (stereo not given) | inactive: -5.16% [at 114 µM] |
| COc1cccc(-n2c(/C=C/c3cccc(C)c3)nc3ccccc3c2=O)c1 | inactive: -0.406% |

| SMILES | activation |
| --- | --- |
| NCC1(CC(=O)O)CCCCC1 | inactive: -9.33% |
| Cc1cccc(-n2c(CC3C(=O)Nc4ccc(C)cc43)nc3ccccc3c2=O)c1 (stereo not given) | inactive: -8.59% |
| CCOc1ccc(CN(CCc2ccc3c(c2)OCO3)Cc2cc(OC)ccc2O)cc1 | inactive: -7.16% |
| C=CCC1(C(C)CC)C(=O)NC(=O)NC1=O (stereo not given) | inactive: -15.6% |
| CO/C=C(/C(=O)OC)c1ccccc1Oc1cc(Oc2ccccc2C#N)ncn1 | inactive: -4.31% [at 114 µM] |
| Cc1nnc2n1-c1sc(CCc3ccc(CC(C)C)cc3)cc1C(c1ccccc1Cl)=NC2C (stereo not given) | inactive: -13.6% |
| Nc1ccc(Sc2ccc(N)cc2)cc1 | inactive: -3.25% [at 114 µM] |
| Cc1ccc(NC(=O)N(Cc2ccc3c(c2)OCO3)C2CCN(Cc3ccccc3)CC2)cc1C | inactive: -5.54% |
| CC(C)=CC1C(C(=O)OCc2cccc(Oc3ccccc3)c2)C1(C)C (stereo not given) | inactive: -14.1% |
| Cc1cc(OCC(=O)N2CCN(CCc3ccncc3)CC2)ccc1Cl | inactive: -4.47% |
| CSc1ccc(/C=C/c2nc3ccccc3c(=O)n2-c2cccc(Cl)c2C)cc1 | inactive: -8.17% |
| O=C(O)c1cc(Oc2ccc(C(F)(F)F)cc2Cl)ccc1[N+](=O)[O-] | inactive: -11.2% |
| Cc1ncc2n1-c1ccc(Cl)cc1C(c1ccccc1F)=NC2 | inactive: -11.7% |
| N#Cc1cc2c(nc1SCC(=O)Nc1ccc(C(F)(F)F)cc1)C1CCN2CC1 | inactive: -23.4% |
| COc1ccc(-n2c(/C=C\c3ccccc3F)nc3ccccc3c2=O)c(OC)c1 | inactive: -21% |
| CC(C)c1ccc(OCC(=O)N2CCN(CCc3ccncc3)CC2)cc1 | inactive: 5.56% |
| CCOC(=O)NC(C)(C)Cc1ccc(Cl)cc1 | inactive: -16.4% |
| N[C@H]1CN(c2c(F)cc3c(=O)c(C(=O)O)cn(C4C[C@@H]4F)c3c2Cl)CC12CC2 (stereo not given in full) | inactive: -37% |
| CNC(=O)NC(O)C(Cl)(Cl)Cl (stereo not given) | inactive: -1.57% |
| CCN[C@@H](C)Cc1cccc(C(F)(F)F)c1 | inactive: -6.47% |
| CCOC(=O)Cn1cccc1-c1nc(-c2ccc(OC)cc2)c(-c2ccc(OC)cc2)s1 | inactive: -11.4% |
| CCc1cccc(NC(=O)CN2C(=O)CN=C(c3ccccc3F)c3cc(Cl)ccc32)c1 | inactive: -10.9% |
| COc1ccc(OC)c(C(c2c(O)c3ccccc3oc2=O)c2c(C)n(C)n(-c3ccccc3)c2=O)c1 (stereo not given) | inactive: -18% |
| O=C(Nc1ccc(Cl)cc1)Nc1ccc(Cl)c(C(F)(F)F)c1 | inactive: -34.4% |

| SMILES | activation |
| --- | --- |
| CCC(=O)OC1(c2ccccc2)CCN(C)CC1 | inactive: 5.39% [at 129 µM] |
| Cc1ccc2c(c1)C1CN(C)CCC1N2 (stereo not given) | inactive: -11.9% [at 23.8 µM] |
| O=C(O)CCCc1ccc(N(CCCl)CCCl)cc1 | inactive: -14.7% |
| CCCCOC(=O)c1ccccc1C(=O)OCc1ccccc1 | inactive: -13.9% [at 114 µM] |
| COc1cccc(C(=O)CCN[C@@H](C)[C@H](O)c2ccccc2)c1 | inactive: 4.73% |
| C#CCOC(C(=O)OCCN(C)C)(c1ccccc1)c1ccccc1 | inactive: -5.3% |
| O=C(O)[C@@H](O)[C@H](O)[C@H](O)[C@@H](O)C(=O)O | inactive: -13.5% |
| COc1ccc(C(=O)N2CCCC2=O)cc1 | inactive: -12.2% |
| Cc1cccc(Cn2cccc(C(=O)Nc3cc(C)on3)c2=O)c1 | inactive: -3.46% |
| CN1C(=S)CN=C(c2ccccc2)c2cc(Cl)ccc21 | inactive: -17.6% |
| COc1ccc(OC)c(CC(C)N)c1 (stereo not given) | inactive: -2.47% [at 129 µM] |
| COc1ccc(C(=O)N2CCN(c3nc4c(OC)cccc4s3)CC2)cc1OC | inactive: -51.6% |
| CSc1ccc(CN2CCN(C(=O)COc3cccc(C)c3)CC2)cc1 | inactive: -29.1% |
| COc1cccc(NC(=O)c2ccc3c(=O)n4nc(Nc5ccccc5OC)sc4nc3c2)c1 | inactive: -31.1% |
| Cc1cccc(-n2c(/C=C/c3c[nH]c4ccccc34)nc3ccccc3c2=O)c1 | inactive: -15.6% |
| COc1ccc(-c2nc(CN3C(=O)CN=C(c4ccccc4)c4ccccc43)c(C)o2)cc1 | inactive: -2.32% |
| O=C1c2ccccc2C(=O)C1C(=O)C(c1ccccc1)c1ccccc1 | inactive: -11.6% |
| NC1(c2ccccc2)CCCCC1 | inactive: -5.32% [at 114 µM] |
| Nc1ccncc1 | inactive: -19.4% |
| C[N+]1(CCF)[C@@H]2CC[C@H]1CC(OC(=O)C(O)(c1ccccc1)c1ccccc1)C2 (stereo not given in full) | inactive: -8.09% |
| CC(C)=CC1C(C(=O)OCN2C(=O)C3=C(CCCC3)C2=O)C1(C)C (stereo not given) | inactive: 0.393% |
| COc1cc(C[C@@H](C)N)c(OC)cc1C | inactive: -4.38% [at 129 µM] |
